{"source": "paper PMC3249379", "about": "(Frontiers in Molecular Neuroscience, 2011)", "biological_target": "the molecule itself", "test": "SEC"}
{"protein": "GluA2-Q (Q/R unedited version of the GluA2 flop AMPA receptor subunit), homotetrameric receptor (receptor) not shown", "values": [{"measurement": "stoichiometry N", "result": 4}]}
